# Data published in the supplement of paper PMC10126150.
# Values marked as one replicate rest on one cluster of the flow cell; about a third of the high ones do not repeat.
# Tested on: ATP
# Test: switch fluorescence ratio, 500 uM ATP over buffer (Cy3 cluster intensity, sum of 5 cycles each) (fold (ratio)); higher = stronger signal-on switching upon ATP binding; sequences stand for … in TCGTCGGCAGCGTCAGATGTGTATAAGAGACAGTTTTTTTTTTTTTTTTTTTTTTTTT…TC
# Conditions: aptamer strand: ATP DNA aptamer (quencher-CACCTGGGGGAGTATTGCGGAGGAAGG + anchor), 100 nM annealed; ATP concentration: 500 uM; one replicate
# In short: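 Imaging in selection buffer was followed by imaging after 15 min with 500 uM ATP at 22 °C, for Cy3-labelled switching-strand clusters annealed to 100 nM quencher-labelled ATP aptamer on a modified Illumina MiSeq flow-cell. Five of these buffer/ATP cycles ran, separated by NaOH stripping and re-annealing. The fluorescence ratio per cluster is summed target-cycle over summed buffer-cycle Cy3 intensity, averaged per switch-domain sequence; clusters outside 100-1000 RFU were removed.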
# 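Note: ATP exposure 15 min at 22 °C before imaging.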
row,Sequence,switch fluorescence ratio
1,CAACTGGACG,0.991
2,CAACTGGTGC,1.58
3,CAACTTCATC,1.11
4,CAACTTGTTC,1.02
5,CAAGAAGTGT,0.956
6,CAAGACTCGA,1.02
7,CAAGCAAACC,1.91
8,CAAGCCTGTA,1.01
9,CAAGCGGCG,1.05
10,CAAGCGTCTC,0.991
11,CAAGCTGTTG,0.947
12,CAAGCTTAAT,1.03
13,CAAGGAATAG,1.19
14,CAAGGAGAG,0.979
15,CAAGGAGCAC,1.08
16,CAAGGAGGGC,0.989
17,CAAGGATTAC,1.15
18,CAAGGCACAA,1.09
19,CAAGGCCTAG,0.98
20,CAAGGTCACC,1.02
21,CAAGTACTCT,1.27
22,CAAGTATAAC,0.982
23,CAAGTCAACG,1.04
24,CAAGTCACTT,1.08
25,CAAGTCGACA,1.01
26,CAAGTCTATA,1.02

row,Sequence,switch fluorescence ratio
1,CAAGTCTTGA,0.997
2,CAAGTGACGG,0.96
3,CAAGTGCTAC,1.15
4,CAAGTTATAT,0.982
5,CAAGTTCTCA,1.04
6,CAAGTTGGGG,0.981
7,CAAGTTGGGT,1.02
8,CAAGTTGTGG,0.996
9,CAAGTTTAGA,1
10,CAAGTTTGTT,1.02
11,CAATAAAGGG,1.04
12,CAATAAATG,0.948
13,CAATAACACA,1.15
14,CAATAACGAT,1.01
15,CAATACGATT,1.19
16,CAATAGCACT,1.12
17,CAATAGCTTG,1.03
18,CAATATCTAT,1
19,CAATATTCGC,1.02
20,CAATATTCGG,0.955
21,CAATATTGAT,0.95
22,CAATCGAGTC,1.01
23,CAATCGTACG,0.941
24,CAATCGTCGG,0.959
25,CAATCGTG,0.969
26,CAATCTGGCC,1.02

row,Sequence,switch fluorescence ratio
1,CAATCTTCTG,1.12
2,CAATCTTTG,0.964
3,CAATCTTTT,0.981
4,CAATGCCTGT,0.976
5,CAATGGCGCG,1.05
6,CAATGGGTGG,1.07
7,CAATGTACAT,0.963
8,CAATGTCCCC,1.21
9,CAATGTTAAC,0.978
10,CAATGTTCAA,0.997
11,CAATTAACCT,1.74
12,CAATTCATCA,1.03
13,CAATTCCGGG,1.11
14,CAATTCTACC,1.47
15,CAATTGTATA,1.03
16,CAATTTACTG,1.01
17,CAATTTATCG,0.992
18,CAATTTGACA,1
19,CAATTTTCAA,0.978
20,CAATTTTTGT,1.02
21,CACAACTGC,1.04
22,CACAACTGGG,1.05
23,CACAAGGCGC,1.01
24,CACAAGGGTG,1.2
25,CACAAGGTTA,0.998
26,CACAAGTCAC,1.18

row,Sequence,switch fluorescence ratio
1,CACAATGTAC,1.47
2,CACAATTCGT,1
3,CACACATCGG,1.07
4,CACACTCAGA,1.04
5,CACACTTCTC,1.03
6,CACAGCAGTT,1.12
7,CACAGGCAGC,0.999
8,CACAGGGGC,1.19
9,CACAGGGGCA,1.45
10,CACATCCGAT,1.05
11,CACATGATTT,1.01
12,CACATGTAGT,0.983
13,CACATTACGC,1.35
14,CACCAGCGTA,1.04
15,CACCAGGGCG,1.15
16,CACCGACAGC,1.66
17,CACCGGGGAT,1.14
18,CACCGGGTGC,2.07
19,CACCGGTACG,1
20,CACCTC,1.1
21,CACGATCACG,1.08
22,CACGCACCCC,1.42
23,CACGCATTCG,1.09
24,CACGCGAGAA,1.13
25,CACGCGCTGT,1.02
26,CACGCTTTTG,1.01

row,Sequence,switch fluorescence ratio
1,CACGGTATTC,1.22
2,CACGTCCCCA,1.06
3,CACGTCCTGT,1.02
4,CACGTCGGT,0.982
5,CACGTCTGG,1.02
6,CACGTGACAG,1.1
7,CACGTGTACG,1.02
8,CACGTGTGGG,0.997
9,CACGTTACGC,1.57
10,CACGTTCCGG,1.06
11,CACGTTTTCT,0.987
12,CACTAAAGTT,0.993
13,CACTAAGGGG,1.07
14,CACTACGCGC,2.75
15,CACTAGATGT,1.02
16,CACTATCTTT,1.04
17,CACTATTTT,0.966
18,CACTATTTTT,0.986
19,CACTCCCTTT,1.23
20,CACTCGAAAG,1.02
21,CACTCGATGG,0.998
22,CACTCGTGTT,0.989
23,CACTCTATCT,1.02
24,CACTCTGGTG,1.27
25,CACTGAGCCA,0.974
26,CACTGATACT,1.16

row,Sequence,switch fluorescence ratio
1,CACTGCTTCA,1.06
2,CACTGTTATC,1.12
3,CACTTATTCC,1.1
4,CACTTGCTTA,1.03
5,CACTTGTGGG,1.03
6,CACTTTAATT,1.07
7,CACTTTCTTA,0.997
8,CACTTTGGCC,1.02
9,CAGAACAGAC,1.1
10,CAGAAGGAG,0.995
11,CAGAATAGGG,1.03
12,CAGACATGTC,0.99
13,CAGACATTTC,1.02
14,CAGACCAGGT,1.01
15,CAGACCTATT,1.03
16,CAGACGCGGC,1.07
17,CAGACTAGTC,0.963
18,CAGACTGGGC,1.02
19,CAGAGAAAAT,0.984
20,CAGAGAAGGG,1
21,CAGAGAGTCG,0.958
22,CAGAGCACAC,2.07
23,CAGAGCCGAC,1.02
